In PubChem BioAssay AID1240 (Sanford-Burnham Center for Chemical Genomics, 2008) one finds displacement data, which are given here for 69 molecules.

In all, about 50,000 compounds went through this assay and about 800 (1.6%) showed an effect of 50% or more. This is one part of the list.

This assay has as its target Bcl-2-like protein 10 (Homo sapiens) (UniProt Q9HD36). Briefly: TR3 peptide-Bcl-B binding displacers, biochemical primary FP assay, phenotype converters (AID 1240).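 Further: 0% = Bcl-B with tracer peptide and DMSO and 100% = tracer peptide lacking Bcl-B.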 To be noted: GST-Bcl-B / FITC-TR3 peptide fluorescence polarization; stronger effect = higher value; compound at 3.75 mg/L. (In fluorescence polarisation assays a small probe gives low polarisation when free and higher when bound to something large.)
Sequence of UniProt Q9HD36 (Q9HD36 whole entry, looked up): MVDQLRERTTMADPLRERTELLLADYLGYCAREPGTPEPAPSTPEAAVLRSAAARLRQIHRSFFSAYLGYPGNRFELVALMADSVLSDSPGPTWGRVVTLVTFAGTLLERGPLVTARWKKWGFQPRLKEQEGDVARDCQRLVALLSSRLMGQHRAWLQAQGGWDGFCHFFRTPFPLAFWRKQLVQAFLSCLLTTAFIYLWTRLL
`CCc1ccc(NC(CC(=O)c2ccc(OC)cc2)c2ccc(OC)cc2)cc1` (centres undefined): the displacement is -20.1%.

In the case of `COc1cc(C2C3=C(CC(C)(C)CC3=O)OC3=C2C(=O)CC(C)(C)C3)ccc1OCc1cc2c(cc1Cl)OCO2`, the displacement came out at 0.5%.

With `Cc1cccc(OCCn2ccnc2)c1C`, the displacement was determined as 5.3%.

Consider `O=C(OCc1ccccc1)Sc1nc2ccccc2[nH]1`, for which the displacement amounted to 9%.

With `CCc1c(C)nc2cc(-c3ccc(Cl)cc3)[nH]n2c1=O`, the displacement amounted to 5.6%.

Turning to `COc1ccc(CNC(=O)CSc2nc3ccccc3s2)cc1`, the displacement is 11.2%.

`NC1=NC(=O)/C(=C/c2cc(Br)ccc2OS(=O)(=O)c2ccc([N+](=O)[O-])cc2)S1`: the displacement stood at 12.7%.

`COc1ccc(C(=O)n2cnc3cc(C)c(C)cc32)cc1[N+](=O)[O-]`: the displacement was determined as 15.4%.

`O=C(O)C(Cc1ccccc1)N1C(=O)/C(=C/c2cccc([N+](=O)[O-])c2)SC1=S` (centres undefined): the displacement is 8.1%.

On to `C=CCOC(=O)C1=C(C)NC2=C(C(=O)CC(C)(C)C2)C1c1ccccc1Cl` (centres undefined), for which the displacement was 4.7%.

On to `O=C(O)CN1C(=O)/C(=C/c2ccccc2OCc2ccc([N+](=O)[O-])cc2)SC1=S`, for which the displacement came out at 15.4%.

With `CC1CCCC(C)N1C(=O)c1ccc(F)cc1F` (centres undefined), the displacement is -1.8%.

Turning to `CC(=O)C1=C(C)NC2=C(C(=O)CC(C)(C)C2)C1c1cccc([N+](=O)[O-])c1` (centres undefined), the displacement was found to be 13.5%.

`COc1ccc2c(OC)c3ccoc3nc2c1OC`: the displacement was -1.5%.

For the molecule `COc1cc(C(=O)Nc2ccccc2Br)cc(OC)c1OC`, the displacement was -5.4%.

With `Cn1c(=O)c2c(ncn2CC(=O)Nc2cccc3ccccc23)n(C)c1=O`, the displacement worked out at 32.4%.

`CC(C)(C)c1ccc(C(CC(=O)c2ccc(Br)cc2)S(=O)(=O)c2ccccc2)cc1` (centres undefined): the displacement came to 12.1%.

As for `COc1ccc(Cl)cc1C(=O)Nc1cccc(S(N)(=O)=O)c1`, the displacement worked out at 15.7%.

In the case of `COc1ccccc1N1CCN(C(=O)COc2ccc(C)cc2C)CC1`, the displacement was determined as 6.6%.

For the molecule `CC(=O)Oc1ccc(NC(=O)CC2Sc3ccccc3NC2=O)cc1` (centres undefined), the displacement is -4.4%.

Regarding `COc1ccc(C2Nc3ccccc3C(=O)N2Cc2ccccc2)cc1Cn1nc(C)c(Cl)c1C` (centres undefined), the displacement stood at 14%.

Consider `CCOC(=O)c1conc1-c1ccc(Br)cc1`, for which the displacement stood at 15.9%.

Consider `O=C(Nc1ccccc1C(=O)Nc1ccc(O)cc1)c1ccccc1`, for which the displacement came to 17.4%.

As to `CC1(C)CC(CC(=O)O)(Cc2ccccc2)CCO1` (centres undefined), the displacement is 8.5%.

`COc1cc(/C=N/c2oc(C)c(C)c2C#N)ccc1O`: the displacement amounted to 16.3%.

As for `C=CCc1c(C)nc(-c2ccccc2)nc1Nc1ccc(C(=O)O)cc1`, the displacement is -3.3%.

For the molecule `CCOc1cc(/C=C2\C(=O)N(c3ccc(S(N)(=O)=O)cc3)N=C2C)ccc1O`, the displacement was 14.6%.

In the case of `O=C(CC(c1ccccc1)c1ccccc1)Nc1ccc(Cl)cn1`, the displacement amounted to 12.7%.

`COc1cc(C=O)cc(Br)c1OCc1ccccc1Cl`: the displacement came out at 10.5%.

For the molecule `O=C(CSC1=NCCS1)NCc1ccco1`, the displacement was found to be 11%.

Turning to `Cc1cccc(C)c1OCC(=O)Nc1nccs1`, the displacement turned out to be 4.7%.

As to `O=C(c1ccc(N2CCN(C(=O)c3ccc(F)c(F)c3)CC2)cc1)c1cccc(F)c1`, the displacement is -9.2%.

In the case of `O=C(Nc1ccc2ccc3cccc4ccc1c2c34)c1ccccc1`, the displacement stood at 13.5%.

With `Cn1c(CNc2ccccc2)nc2ccccc21`, the displacement is -1.3%.

Regarding `CCCc1nn2c(N)c(C=C3C=C(Cl)C(=O)C(Cl)=C3)c(=O)nc2s1`, the displacement amounted to 1.1%.

Turning to `O=C(Nc1ccccc1C(=O)Nc1ccccc1Cl)c1ccco1`, the displacement is -4.4%.

As to `Cc1ccc(C(=O)c2ccc(Br)c([N+](=O)[O-])c2)cc1C`, the displacement worked out at 6.6%.

In the case of `O=C(/C=C/c1ccccc1)NCCOC(=O)Nc1ccccc1`, the displacement turned out to be 13.8%.

Consider `O=C(O)c1ccc(S(=O)(=O)c2ccc3c(c2)C(=O)N(NC(=O)c2ccco2)C3=O)cc1`, for which the displacement is -20.9%.

`CC(=O)c1cc(C(=O)CC(=O)Nc2ccc([N+](=O)[O-])cc2)sc1Nc1ccccc1`: the displacement worked out at 27.1%.

Regarding `CCOC(=O)C1=C(N)OC2=C(C(=O)CC(C)(C)C2)C1c1cccc(Br)c1` (centres undefined), the displacement turned out to be 0.3%.

Turning to `O=S(=O)(c1ccccc1)N1CCN(Cc2cccc(Cl)c2)CC1`, the displacement was -8.3%.

`O=C1NC(=Nc2ccccc2)S/C1=C/c1ccc(O)cc1`: the displacement is -5.6%.

On to `CC(C)=CC1C(CNC(=O)C(Cl)(Cl)Cl)C1(C)C` (centres undefined), for which the displacement was 9.1%.

As for `O=C(/C=C/N1CCCCC1)c1cccs1`, the displacement is 5.4%.

Regarding `CC(NC(=O)C(=O)NCC1CCCO1)c1ccccc1` (centres undefined), the displacement turned out to be 10%.

Turning to `COc1ccccc1/C=C1\SC(=O)N(CCC(=O)Nc2ccc(S(=O)(=O)Nc3nccs3)cc2)C1=O`, the displacement is 4%.

For the molecule `COc1ccc(OC)c(/C=N\N2CCN(c3ccccc3)CC2)c1`, the displacement was found to be 1.8%.

Regarding `COc1cc(/C=N/N2C(=O)C3C(C2=O)C2C=CC3C23CC3)ccc1OCc1ccc([N+](=O)[O-])cc1` (centres undefined), the displacement came to 5.9%.

With `O=C1NC(=S)N/C1=C/c1cccc(O)c1`, the displacement is -6.7%.

Take `CN(C)c1ccc(/C=N/S(=O)(=O)c2cccs2)cc1`: the displacement was 15.1%.

Regarding `Cc1cccc(N2CCN(C(=O)c3c(-c4ccccc4Cl)noc3C)CC2)c1C`, the displacement was 6.6%.

Turning to `Cc1ccc(OCCOCCOc2ccc(/C=C3/SC(=S)N(C)C3=O)cc2)cc1`, the displacement amounted to 2.8%.

In the case of `Cc1ccc2nc(NC(=O)c3ccc(F)cc3)sc2c1`, the displacement was found to be 0.7%.

With `CC(C(=O)O)n1c(O)c(/C=C2/C=Nc3ccccc32)sc1=S` (centres undefined), the displacement was -119%.

For the molecule `Cc1ccc2nc(/C(C#N)=C\c3ccc(N4CCCCC4)c([N+](=O)[O-])c3)[nH]c2c1`, the displacement stood at 10.4%.

Regarding `O=C1C2C(c3ccccc3)OC3(C(=O)c4ccccc4C3=O)C2C(=O)N1c1cccc(C(F)(F)F)c1` (centres undefined), the displacement was -9.1%.

On to `COc1ccc(-n2cnc3cc(NS(=O)(=O)c4ccc(C)cc4)ccc32)cc1`, for which the displacement is -1.2%.

Take `Cc1nnc(NC(=O)CSc2nnc3c4ccccc4n(C(C)C)c3n2)s1`: the displacement is 12.7%.

Take `CC1CC(N(C(=O)C2CC2)c2ccccc2)c2ccccc2N1C(=O)C1CC1` (centres undefined): the displacement was -6.7%.

As for `O=C(O)CCC(=O)c1cccc([N+](=O)[O-])c1`, the displacement was found to be 1.9%.

Turning to `CCOC(=O)C(=CNc1ccc(C)c(C)c1)C(=O)OCC`, the displacement is -5.6%.

As to `COc1ccc(OC)c(S(=O)(=O)n2cnc3cc(C)c(C)cc32)c1`, the displacement was found to be 15.9%.

With `Cc1cc(C)nc(NC(=O)c2ccc(F)cc2)c1`, the displacement is -8.1%.

As to `COc1cc([N+](=O)[O-])ccc1NC(=O)c1cc(Cl)ccc1Cl`, the displacement was -10.5%.

With `COc1ccc(OC)c(N(CC(=O)NC(C)(C)CO)S(=O)(=O)c2ccccc2)c1`, the displacement was 7.3%.

In the case of `C=CCn1cc(I)c(=O)n(CC=C)c1=O`, the displacement stood at 4.3%.

As to `COCCNC(=O)CN(c1cccc(C(F)(F)F)c1)S(C)(=O)=O`, the displacement was found to be 1.1%.

As for `COC(=O)c1cc(NC(=O)c2ccc3ccccc3c2)cc(C(=O)OC)c1`, the displacement amounted to 11.1%.
